# Measured values reported in the supplement of paper PMC11348887.
# Where a name gives a salt, the structure may show the parent alone. The list shows a part of the results. No stated cut-off is given here; in the data, active = -2 or less and inactive = the rest. Most values come without repeats; read them as rough.
# System: hPSC-derived cortical neurons (WA09)
# Assay: nuclei number (viability) z-score; higher = more surviving cells
# Settings: 5 µM; treatment: days 7-14 after plating, readout day 21
# 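Further: nuclei counted from DAPI counterstain by automated high-content image analysis, four fields per well at ×20 in 384-well plates, with sequential b-score then z-score normalization.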
row,SMILES,nuclei number (z-score)
1,Cc1cc(C(O)=C2C(=O)C(=O)N(CCCN3CCOCC3)C2c2ccncc2)ccc1OCc1ccccc1 (stereo unspecified),inactive: 0.422
2,Nc1ncnc2c1c(-c1cnc3[nH]ccc3c1)nn2C1CCCC1,active: -3.75
3,Cc1nc(NC(=O)N2CCC[C@H]2C(N)=O)sc1-c1ccnc(C(C)(C)C(F)(F)F)c1,inactive: -0.155
4,COc1ccc(C(=O)C2CCN(CC(=O)N(Cc3nc4c(c(=O)[nH]3)COCC4)CC3CC3)CC2)cc1,inactive: -1.29
5,CC(C)NCC(O)COc1cccc2ccccc12 (stereo unspecified) [Propranolol HCl],inactive: -0.41
6,Oc1c2ccccc2c2c3c(cccc13)N=N2,inactive: -0.406
7,COC(=O)[C@@H]1[C@H]2C[C@H]3c4[nH]c5ccccc5c4CCN3C[C@@H]2CC[C@@H]1O [Yohimbine HCl],inactive: -0.492
8,CN(C)Cc1ccc(-c2nc3cccc4c3n2CCNC4=O)cc1,inactive: 1.14
9,O=C(/C=C\n1cnc(-c2cc(C(F)(F)F)cc(C(F)(F)F)c2)n1)NNc1cnccn1,active: -3.88
10,Cc1[nH]c(/C=C2\C(=O)Nc3ccc(S(=O)(=O)N(C)c4cccc(Cl)c4)cc32)c(C)c1C(=O)N1CCN(C)CC1,inactive: 1.01
11,CCCCCCc1ccc(O)cc1O [Hexylresorcinol],inactive: -0.855
12,CCC1C/C(=C\c2cccnc2)C(=O)/C(=C/c2cccnc2)C1 (stereo unspecified),active: -5.67
13,CC(C)C[C@H](NC(=O)[C@H]1O[C@@H]1C(=O)O)C(=O)NCCCCN=C(N)N,active: -4.48
14,O=NN(CCCl)C(=O)NC1CCCCC1 [Lomustine],inactive: -0.782
15,COc1cc(CCC(C)=O)ccc1O [Vanillylacetone],inactive: 5.64
16,Cc1cccc(CN2CCN(C(c3ccccc3)c3ccc(Cl)cc3)CC2)c1 (stereo unspecified) [Meclizine 2HCl],active: -8.08
17,Cc1c[nH]c2nc(Nc3ccc(N4CCN(C)CC4)c(F)c3)nc(-c3cccc(CC#N)c3)c12,active: -7.95
18,O=C(O)CCC(=O)Nc1ccc(S(=O)(=O)Nc2nccs2)cc1 [Succinylsulfathiazole],inactive: 0.707
19,COc1cnc(NS(=O)(=O)c2ccc(N)cc2)nc1 [Sulfameter],inactive: 0.364
20,CC(C)c1cc(C(=O)N2Cc3ccc(CN4CCN(C)CC4)cc3C2)c(O)cc1O,active: -2.45
21,CN1CCC(COc2cnc(-c3cccc(Cn4nc(-c5cccc(C#N)c5)ccc4=O)c3)nc2)CC1,inactive: 0.000827
22,CCOC(=O)C1=C[C@]2(CC)CCCN3CCc4c(n1c1ccccc41)[C@@H]32 [Vinpocetine],inactive: 0.244
23,C[C@]12CC[C@@H]3c4ccc(O)cc4CC[C@H]3[C@@H]1CCC2=O [Estrone],inactive: 0.122
24,COc1cc(C(=O)NC2CCCNC2)cc(OC)c1OC (stereo unspecified) [Troxipide],inactive: 0.297

row,SMILES,nuclei number (z-score)
1,CN(C)[C@@H]1C(O)=C(C(N)=O)C(=O)[C@@]2(O)C(O)=C3C(=O)c4c(O)ccc(Cl)c4[C@@](C)(O)[C@H]3C[C@@H]12 [Chlortetracycline HCl],inactive: 0.5
2,CCCCCCCCc1ccc(CCC(N)(CO)CO)cc1 [Fingolimod (FTY720) HCl],active: -5.12
3,CCC(CC)CC1(C(=O)Nc2ccccc2SC(=O)C(C)C)CCCCC1,inactive: 1.69
4,c1ccc2[nH]c(-c3cscn3)nc2c1 [Thiabendazole],inactive: 4.66
5,Cn1cc(-c2ccc3nnc(C(F)(F)c4ccc5ncccc5c4)n3n2)cn1,inactive: 0.322
6,CN1CC2c3ccccc3Oc3ccc(Cl)cc3C2C1 (stereo unspecified) [Asenapine],inactive: 1.58
7,CCCCNc1ncc2c(-c3ccc(CN4CCN(C)CC4)cc3)cn([C@H]3CC[C@H](O)CC3)c2n1,active: -4.69
8,COC1=C2C[C@@H](C)C[C@H](OC)[C@H](O)[C@@H](C)/C=C(\C)[C@H](OC(N)=O)[C@@H](OC)/C=C\C=C(/C)C(=O)NC(=CC1=O)C2=O [Geldanamycin],active: -2.34
9,CNC(=O)Nc1ccc(-c2nc(N3CC4CCC(C3)O4)c3cnn(C4CCC5(CC4)OCCO5)c3n2)cc1,active: -2.68
10,C[N+](C)(C)NCCC(=O)[O-] [Mildronate],inactive: 1.42
11,COc1ccc(-c2cc(=O)c3c(O)cc(O[C@@H]4O[C@H](CO[C@@H]5O[C@@H](C)[C@H](O)[C@@H](O)[C@H]5O)[C@@H](O)[C@H](O)[C@H]4O)cc3o2)cc1O [Diosmin],inactive: -0.835
12,COc1cc(Nc2ncc(F)c(Nc3ccc4c(n3)N(COP(=O)(O)O)C(=O)C(C)(C)O4)n2)cc(OC)c1OC [Fostamatinib (R788)],inactive: 0.00234
13,COc1cc(Nc2ncc(F)c(Nc3ccc4c(n3)N(COP(=O)(O)O)C(=O)C(C)(C)O4)n2)cc(OC)c1OC [R788 (Fostamatinib) Disodium],inactive: -0.486
14,Cc1nnc(C(C)C)n1C1C[C@H]2CC[C@@H](C1)N2CC[C@H](NC(=O)C1CCC(F)(F)CC1)c1ccccc1 (stereo in doubt) [Maraviroc],inactive: 1.19
15,CCCCCCCN(CC)CCCC(O)c1ccc(NS(C)(=O)=O)cc1 (stereo unspecified) [Ibutilide Fumarate],inactive: 1.95
16,CC1(C)S[C@@H]2[C@H](NC(=O)[C@H](NC(=O)N3CCN(S(C)(=O)=O)C3=O)c3ccccc3)C(=O)N2[C@H]1C(=O)O [Mezlocillin Sodium],inactive: -0.0138
17,Cn1c(=O)cc(N2CCC[C@@H](N)C2)n(Cc2ccccc2C#N)c1=O [Alogliptin],inactive: -0.743
18,CC1=C(CC(=O)O)c2cc(F)ccc2/C1=C\c1ccc([S+](C)[O-])cc1 (stereo unspecified) [Sulindac],inactive: 0.607
19,C=CC(=O)Nc1ccc2ncnc(Nc3ccc(OCc4cccc(F)c4)c(Cl)c3)c2c1,inactive: -1.25
20,CC(=O)N1CCN(CCOc2ccc(C3CCN(C4=Nn5c(nnc5C(F)(F)F)CC4)CC3)cc2)CC1,inactive: -0.23
21,C=CC(=O)N1CCC[C@@H](n2nc(-c3ccc(Oc4ccccc4)cc3)c3c(N)ncnc32)C1,inactive: 0.247
22,O=C(O)c1ccccc1C(=O)Nc1ccc(-c2ccccc2)cc1 [Kartogenin],inactive: 0.027
23,C[C@@H]1CN(CC(=O)Nc2ccc3c(c2)Cc2cccc(-c4cc(=O)cc(N5CCOCC5)o4)c2S3)C[C@H](C)O1,inactive: 0.689
24,CCC[C@H](NC(=O)[C@@H]1[C@H]2CCC[C@H]2CN1C(=O)[C@@H](NC(=O)[C@@H](NC(=O)c1cnccn1)C1CCCCC1)C(C)(C)C)C(=O)C(=O)NC1CC1 [Telaprevir (VX-950)],inactive: 0.377

row,SMILES,nuclei number (z-score)
1,Cc1noc(NS(=O)(=O)c2ccc(N)cc2)c1C [Sulfisoxazole],inactive: 0.537
2,CCc1cccc2c3c([nH]c12)C(CC)(CC(=O)O)OCC3 (stereo unspecified) [Etodolac],inactive: 0.599
3,Cc1nc(N)sc1-c1ccnc(Nc2ccc(N3CCOCC3)cc2)n1,inactive: 1.75
4,CN1C(=O)[C@@H](NC(=O)c2cc(Cc3ccccc3)on2)COc2ccccc21,inactive: -0.452
5,C[C@]12CC[C@@H]3c4ccc(O)cc4CC[C@H]3[C@@H]1C[C@@H](O)[C@@H]2O [Estriol],inactive: 1.47
6,CNC(=O)[C@H](Cc1ccccc1)NC(=O)[C@H](CC(C)C)[C@H](CSc1cccs1)C(=O)NO [Batimastat (BB-94)],inactive: 0.685
7,CCOC(=O)[C@H](CCc1ccccc1)N[C@@H](C)C(=O)N1CCC[C@H]1C(=O)O [Enalapril Maleate],inactive: 0.266
8,C[C@H](NC(=O)[C@@H](Cc1ccc2ccccc2c1)NC(=O)[C@@H](C)N)C(=O)N[C@@H](Cc1c[nH]c2ccccc12)C(=O)N[C@H](Cc1ccccc1)C(=O)N[C@@H](CCCCN)C(N)=O,inactive: -0.379
9,COc1ccc2[nH]c([S+]([O-])Cc3ncc(C)c(OC)c3C)nc2c1 (stereo unspecified) [Omeprazole],active: -3.49
10,COc1nc(-c2ccc3c(c2)OCO3)n(-c2ccc(NC(=O)CSc3ccccc3)cc2)n1 [SecinH3],inactive: 0.921
11,CCS(=O)(=O)Nc1ccc2c(c1)/C(=C(/Nc1ccc(CN3CCCCC3)cc1)c1ccccc1)C(=O)N2 [Hesperadin],active: -4.28
12,O=C(Nc1ccc(-c2ccnc(Nc3ccc(N4CCOCC4)cc3)n2)cc1)C1CCCN1 (stereo unspecified),inactive: 4.65
13,O=S(=O)(O)CCCS(=O)(=O)O [Eprodisate disodium],inactive: 1.07
14,NC(=S)N/N=C/c1ncccc1N [Triapine],inactive: -0.17
15,Nc1cccc2c1CN(C1CCC(=O)NC1=O)C2=O (stereo unspecified) [Lenalidomide (CC-5013)],inactive: 1.58
16,C=CC1=C(C(=O)O)N2C(=O)[C@@H](NC(=O)/C(=N\OCC(=O)O)c3csc(N)n3)[C@H]2SC1 [Cefixime],inactive: 0.412
17,COc1ccc(CNC(=O)Nc2ncc([N+](=O)[O-])s2)cc1,inactive: 0.21
18,Cn1c2ccccc2c2c3c(c4c5ccccc5n(CCC#N)c4c21)CNC3=O,inactive: 0.586
19,OCCOCCN1CCN(C(c2ccccc2)c2ccc(Cl)cc2)CC1 (stereo unspecified) [Hydroxyzine 2HCl],inactive: -1.73
20,O=C(NS(=O)(=O)c1ccc(Br)s1)c1ccc(Cl)cc1Cl [Tasisulam],inactive: 0.876
21,C/C(=N\NC(=O)c1cccc(S(=O)(=O)N2CCOCC2)c1)c1cc(Cl)ccc1O,inactive: 0.568
22,[I-].[K+] [Potassium Iodide],inactive: 0.673
23,Cc1ccccc1N1C(=O)c2cc(S(N)(=O)=O)c(Cl)cc2NC1C (stereo unspecified) [Metolazone],inactive: 0.606
